The list shows a part of the results. At the low end of the ranking the order means little.

From PMC6212790 come the findings set out here.

This assay concerns the target T1, GST-Rok (full length) (UniProt O34857).
T1 sequence: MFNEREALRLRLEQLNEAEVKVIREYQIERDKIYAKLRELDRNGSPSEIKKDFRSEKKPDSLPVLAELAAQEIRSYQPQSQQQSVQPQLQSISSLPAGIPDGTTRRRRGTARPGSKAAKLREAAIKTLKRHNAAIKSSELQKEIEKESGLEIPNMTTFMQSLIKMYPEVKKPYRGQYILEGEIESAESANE
Put plainly: protein binding microarray.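 Further: rank score from −0.5 (least bound) to 0.5 (best bound).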 The following applies: Rok is a gene silencer of Bacillus subtilis; high values mean tight binding; most listed sequences are background and not binding sites; double strand, one strand shown.
Consider CGGGGAAC, for which the binding signal is -0.172 E-score.
With CGGGCTTC the figure was -0.122 E-score; with ACCTGATG, -0.00581 E-score.
As for GCTGTGTA, the binding signal is 0.137 E-score.
To GGCCGGAC belongs -0.269 E-score; to CAGGCTGA, -0.0829 E-score; to ATTCAACA, 0.0903 E-score.
With AATGCACG the figure was -0.0533 E-score.
To GCCATGTA belongs 0.135 E-score; to AAAATCGT, 0.131 E-score; to CATACTAA, 0.125 E-score.
Sequence CAACAGCG gave a binding signal of -0.0866 E-score.
With CGTTGATC the figure was 0.138 E-score; with ACCACGTA, -0.0124 E-score; with AAGCACCG, -0.263 E-score.
To ACACTCGA belongs -0.0663 E-score.
With ACGGCCAC the figure was -0.322 E-score; with CCAGATTC, -0.0638 E-score; with CGACTGTA, 0.131 E-score.
As to CGCGACAG, the binding signal is 0.0354 E-score.
The sequence ATAAGACG gave a binding signal of -0.0152 E-score.
Sequence ACACTCGG gave a binding signal of 0.0686 E-score.
With AGTTGTCG the figure was 0.0774 E-score; with CAGATTTA, 0.226 E-score; with CAACGTCG, 0.0704 E-score.
To TTACAAAA belongs -0.00568 E-score; to TAGCTTCA, 0.13 E-score; to ACTTCGTG, 0.00998 E-score.
To CGCGTGAG belongs -0.176 E-score.
GACCGTGA yielded a binding signal of -0.136 E-score.
To AAAGAGCG belongs -0.0664 E-score; to ACAACCTG, 0.016 E-score.
GCTTTCAC returned a binding signal of 0.0622 E-score.
With CATTTGGA the figure was -0.0049 E-score; with AGTGTTCC, -0.101 E-score.
With AGAACGTA the figure was 0.121 E-score.
To AACCCCCG belongs -0.336 E-score.
ATCTTGAC came in with a binding signal of 0.0686 E-score.
With ATAGCCGC the figure was 0.0244 E-score.
With CAAAGACG the figure was -0.0713 E-score; with CGGCGCCG, -0.234 E-score; with GACATTAA, 0.00348 E-score.
To AGGTCGGC belongs -0.248 E-score.
Sequence CGGTGACG registered a binding signal of -0.171 E-score.
With ACTCCGGA the figure was -0.0444 E-score.
With ACGGACGT the figure was -0.114 E-score; with AACAATGA, 0.126 E-score.
With AGGTTATA the figure was 0.0945 E-score; with GAGGGAGC, -0.36 E-score; with ATCACAAA, 0.225 E-score.
In turn, CGAAGTTC yielded a binding signal of 0.0046 E-score.
As to AGACTTGA, the binding signal was -0.116 E-score.
CCGTGTAA yielded a binding signal of 0.0877 E-score.
With CTGCAGTA the figure was 0.221 E-score.
To GTATTAAA belongs 0.109 E-score; to CCAGTGCC, -0.167 E-score.
With AGTTCGCC the figure was 0.151 E-score.
As for AGTAACAG, the binding signal came to 0.185 E-score.
With AAAACGTA the figure was 0.269 E-score.
To ACGCCCGG belongs -0.344 E-score; to CAAGCCGG, -0.305 E-score.
As for ACCGACGT, the binding signal was -0.0735 E-score.
With GGAGAGGA, the binding signal was -0.315 E-score.
To CGTGAAAC belongs -0.112 E-score; to CAGCTCCA, -0.182 E-score; to ACCACTAG, 0.0844 E-score.
CGGTCTCA gave a binding signal of -0.0583 E-score.
To ACTGGCGA belongs -0.0516 E-score; to CCAGTGTC, -0.227 E-score.
To CAATTCCG belongs -0.0331 E-score.
To AATTTACT belongs 0.384 E-score; to GTCGTGGA, 0.00574 E-score; to ACGATTTC, 0.0369 E-score.
Take CACCGTTC: the binding signal is -0.0705 E-score.
With CCCAAACG the figure was 0.051 E-score.
Sequence CGCCTTGC registered a binding signal of -0.395 E-score.
With GGTACTTA the figure was 0.143 E-score; with CGATATCC, 0.111 E-score.
In turn, CATAACGC displayed a binding signal of 0.138 E-score.
Consider GACTCTTA, for which the binding signal is -0.104 E-score.
To AGGTGAGA belongs -0.127 E-score.
To ATTGGTCG belongs 0.0283 E-score.
With CCGCTCAG the figure was -0.0853 E-score; with GCGAACGA, -0.127 E-score.
Turning to ACACGACG, the binding signal was 0.0831 E-score.
With GCCGGGCA the figure was -0.369 E-score; with TGGCCCCA, -0.241 E-score; with CTCCAACA, -0.0396 E-score.
ATTATCTC returned a binding signal of -0.0512 E-score.
For the sequence ATGTGTCA, the binding signal turned out to be 0.112 E-score.
The sequence ATCGGTTC had a binding signal of -0.00135 E-score.
For CTATAAAG, the binding signal was found to be 0.14 E-score.
With ACCCGTGA the figure was -0.212 E-score; with CGGAGTGC, -0.265 E-score.
AAGTCGGT: the binding signal was determined as 0.147 E-score.
With CAGCGGTA the figure was 0.166 E-score; with ACCAGTCC, -0.115 E-score.
With ACACGTAC the figure was -0.02 E-score.
With GGCGTAAC the figure was -0.129 E-score.
ACCATCCC had a binding signal of 0.138 E-score.
Sequence CCTAAGAA yielded a binding signal of -0.00097 E-score.
With AGCCCATA the figure was -0.099 E-score.
With CTCTGCAA the figure was -0.0816 E-score; with ACCTCGAT, 0.143 E-score; with AGTGTAAA, 0.307 E-score.
With CCGAAACA the figure was -0.00129 E-score; with CGGGAAGC, -0.0863 E-score.
In the case of CGCATACC, the binding signal was -0.0972 E-score.
With CCAAGCAC the figure was -0.214 E-score; with CTCTGGGA, -0.154 E-score.
As for AAAGCGGC, the binding signal is -0.226 E-score.
With CCTCCGCA the figure was -0.255 E-score.
Take GTCGCGAA: the binding signal was -0.0961 E-score.
To GTCGTAAA belongs 0.0437 E-score; to AGTATGAC, 0.101 E-score.
With ATTAACGC the figure was 0.0477 E-score; with AGGAAGAA, -0.0233 E-score.
With CGAAATCC the figure was -0.128 E-score; with AGCAGATC, 0.0918 E-score.
In turn, GGATAAAC gave a binding signal of 0.0587 E-score.
To CGTGTGTC belongs -0.1 E-score.
With CAGTACAA the figure was 0.265 E-score; with ATAGAAAG, 0.303 E-score; with CGGAATCC, -0.195 E-score.
As to ACCACTCC, the binding signal was -0.0152 E-score.
To CACTGCGG belongs -0.232 E-score; to ATTAACGG, 0.0398 E-score.
Turning to TAGTGTCA, the binding signal was determined as 0.138 E-score.
To AAAGGAGA belongs -0.151 E-score; to CATTCTAG, 0.259 E-score.
To AGTAATTA belongs 0.381 E-score; to AAATAATA, 0.312 E-score.
With TGCTGACA the figure was -0.163 E-score; with AGTACCGA, 0.279 E-score; with AAGTTCCA, -0.0441 E-score.
Take AATCAAAC: the binding signal is 0.143 E-score.
In turn, GACCATGC had a binding signal of -0.239 E-score.
With AAGCGTAA the figure was -0.0183 E-score; with GAATCCTC, -0.148 E-score.
With CCTTTAGC the figure was -0.103 E-score.
With GCTTGCAC the figure was -0.141 E-score; with ACATGCCG, -0.101 E-score.
As to AACAGAAA, the binding signal came to 0.133 E-score.
Sequence CCGTGCCG registered a binding signal of -0.181 E-score.
To CCCGCCGC belongs -0.444 E-score; to CTAAGATC, -0.0713 E-score.
With AGCACGAG the figure was -0.172 E-score; with ATCATCAC, 0.11 E-score; with GCGTTTAC, -0.00863 E-score.
With AAAGCATA the figure was 0.0447 E-score; with AAAGAGGT, 0.0872 E-score; with TAGTTCCA, 0.173 E-score.
Regarding ATTTCCTA, the binding signal came to 0.176 E-score.
To GCCAAGCA belongs -0.294 E-score; to AAATGCGC, 0.0529 E-score; to AATCCCGA, -0.0151 E-score.
For ACGCATAC, the binding signal was 0.0406 E-score.
With ATGGTTAC the figure was -0.167 E-score; with AACTATAA, 0.326 E-score.
GTGCGTCA returned a binding signal of -0.13 E-score.
With CGGCAGAA the figure was 0.0508 E-score.
GGCCTGAA gave a binding signal of -0.334 E-score.
The sequence CCGGCGCG displayed a binding signal of -0.342 E-score.
To ACTACCCG belongs -0.156 E-score; to CTGGAACC, -0.123 E-score; to AAGCATAG, 0.0143 E-score.
To CTTATCGA belongs 0.0539 E-score; to CCTCAACA, -0.105 E-score; to CTCTGTAC, 0.036 E-score.
With GCTCTACA the figure was -0.114 E-score; with TTCACAAA, -0.00818 E-score.
AAGTCACG returned a binding signal of -0.187 E-score.
